We go through one molecule from paper PMC2423471, “HyperISGylation of Old World Monkey ISG15 in Human Cells” (PLoS ONE, 2008).

The target of this experiment is T1, HuUbE1L (purified recombinant) (human, UniProt P41226 1-1012).
T1 construct: source: bought: Boston Biochem
T1 sequence (looked up): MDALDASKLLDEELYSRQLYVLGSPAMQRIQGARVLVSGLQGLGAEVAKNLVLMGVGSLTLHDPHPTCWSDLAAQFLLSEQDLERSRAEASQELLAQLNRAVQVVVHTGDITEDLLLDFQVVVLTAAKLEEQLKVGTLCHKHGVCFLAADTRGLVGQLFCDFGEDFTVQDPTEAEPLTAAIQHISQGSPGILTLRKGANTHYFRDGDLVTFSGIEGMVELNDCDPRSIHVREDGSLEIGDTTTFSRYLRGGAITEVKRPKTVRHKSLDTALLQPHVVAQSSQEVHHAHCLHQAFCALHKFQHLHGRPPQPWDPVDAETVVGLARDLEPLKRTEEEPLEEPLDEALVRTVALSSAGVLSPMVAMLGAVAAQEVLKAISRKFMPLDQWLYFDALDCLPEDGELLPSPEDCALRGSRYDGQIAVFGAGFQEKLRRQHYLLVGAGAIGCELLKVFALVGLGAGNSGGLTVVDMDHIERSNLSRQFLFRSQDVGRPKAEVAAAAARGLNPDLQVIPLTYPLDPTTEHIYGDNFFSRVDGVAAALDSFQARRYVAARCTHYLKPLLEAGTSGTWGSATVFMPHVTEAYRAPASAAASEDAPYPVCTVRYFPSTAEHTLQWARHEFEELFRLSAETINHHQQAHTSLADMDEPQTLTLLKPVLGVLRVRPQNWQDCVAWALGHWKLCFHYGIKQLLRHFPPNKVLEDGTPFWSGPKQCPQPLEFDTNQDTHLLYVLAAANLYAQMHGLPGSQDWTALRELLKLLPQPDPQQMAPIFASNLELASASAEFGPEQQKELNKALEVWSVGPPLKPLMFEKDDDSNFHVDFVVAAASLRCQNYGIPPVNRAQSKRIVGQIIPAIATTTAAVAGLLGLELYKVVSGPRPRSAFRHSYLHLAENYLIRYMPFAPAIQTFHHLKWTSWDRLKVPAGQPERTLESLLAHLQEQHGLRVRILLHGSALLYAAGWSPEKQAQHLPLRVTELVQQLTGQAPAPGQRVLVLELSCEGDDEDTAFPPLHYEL
The experiment is described as follows: in vitro thiolester formation, non-reducing SDS-PAGE; 2.5 µM UbcH8, 200 nM UbE1 or UbE1L, 7.5 µM mature Hu- or AgmISG15; 50 mM HEPES pH 8.0, 100 mM NaCl, 1 mM Mg-ATP, 45 min at 37°C; covalent E1-ISG15 thiolester band on non-reducing SDS-PAGE, disrupted by β-ME. The following applies: both partners purified.

B1: mature HuISG15 (purified recombinant) (natural protein)
chain: not shown
notes: Mature ISG15 (with removed C-terminal peptide), human, allelic variant with N at position 83 and S at position 94; also called mature ISG15; source: pTYB1 vector, IPTG-induced cultures, purified (IMPACT intein/chitin column, DTT cleavage, dialysis)
Turning to B1, the binding result is recorded as “binds”.
